Screen size: about 280,000 compounds; about 100 (0.036%) were called active. This list was built around the results that the source calls inconclusive (neither active nor inactive); the mix of calls is not that of the screen. Calls follow the shape of the dose curve; as a rule, active = well fitted inhibition curve with a large enough effect in the signal ratio, with a control signal flat (not every such curve was filed as active); inconclusive = small, poorly fitted or top-dose-only effect, or effect the other way, or a change in a side signal; inactive = no such curve, though single readings can be large or run the other way; the % refers to the signal ratio. A potency beside an inconclusive call is a rough fit, not a confirmed value. “Side channel” marks fits to a control or component signal instead of the main read-out.
target: Muscleblind-like protein 1 (Homo sapiens) (UniProt Q9NR56); assay: qHTS Assay for Inhibitors of MBNL1-poly(CUG) RNA binding; conditions: TR-FRET MBNL1-His/biotin-(CUG)12 binding, 665/545 ratio; activity change, negative = inhibition: at 57.5 µM (top of the series)
How it was run: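 MBNL1-His + Biotin-(CUG)12, cpd titration 92 nM–58 uM; Tb anti-His Ab 0.055 ng/ul, SA-XL665 5 nM (final); 60 min RT; ratiometric 665/545 nm, Ex 340 nm; normalized to buffer and full-complex controls.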
% is scaled to controls: 0 for no effect and ±100 for the full control effect; potency is read from the fitted curve at half-maximal effect; tags tell the direction and shape of the fitted curve or compound fluorescence and quenching.

Chain of UniProt Q9NR56 (Q9NR56 whole entry, looked up): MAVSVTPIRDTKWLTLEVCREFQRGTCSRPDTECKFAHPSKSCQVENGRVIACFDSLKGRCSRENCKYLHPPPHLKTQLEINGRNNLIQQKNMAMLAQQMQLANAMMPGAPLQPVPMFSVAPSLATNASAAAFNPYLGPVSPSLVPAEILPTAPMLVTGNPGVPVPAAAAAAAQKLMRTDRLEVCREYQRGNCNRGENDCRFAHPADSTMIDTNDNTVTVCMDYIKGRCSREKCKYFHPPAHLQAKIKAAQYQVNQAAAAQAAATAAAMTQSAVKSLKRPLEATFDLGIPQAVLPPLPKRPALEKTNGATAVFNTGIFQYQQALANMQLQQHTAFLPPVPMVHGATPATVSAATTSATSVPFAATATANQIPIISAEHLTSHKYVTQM

Q: `O=[N+]([O-])c1ccc(OCCCCN2CCc3ccccc3C2)cc1` was tested. Which Potency did it give?
A: inconclusive: 25.1 µM [quencher, side channel, partial curve]

Q: `COc1ccc(S(=O)(=O)Nc2ccc(F)c(F)c2)cc1Cl` was tested. Which Potency did it give?
A: inconclusive: 100 µM [inhibitor, single point]

Q: With `COc1ccc(CCN(C)c2ncnc3sccc23)cc1OC` as the compound, how does the “activity change, negative = inhibition” value read?
A: inactive: -0.163%

Q: `O=S(=O)(Nc1ccccc1Cl)c1cccc2nsnc12` was tested. Which Potency did it give?
A: inconclusive: 15.8 µM [quencher, side channel, partial curve]

Q: For `COc1cccc(/C=N/Nc2nnc(C)n2N)c1O`, which Potency is on record?
A: inconclusive: 39.8 µM [quencher, side channel, single point]

Q: With `O=C(Nc1ccc2nc3n(c(=O)c2c1)CCCCC3)c1cc([N+](=O)[O-])ccc1F` as the compound, how does the Potency read?
A: inconclusive: 15.8 µM [quencher, side channel, partial curve]

Q: How did the Potency turn out when `COC(=O)c1ccccc1NC(=O)C1CCN(S(C)(=O)=O)CC1` was run?
A: inconclusive: 3.55 µM [quencher, side channel, single point]

Q: `Cc1nn(-c2ccccc2)c(C)c1NC(=O)COC(=O)c1cc([N+](=O)[O-])ccc1NCCO` was tested. Which Potency did it give?
A: inconclusive: 8.91 µM [quencher, side channel, partial curve]

Q: `OC1(c2ccc(Cl)cc2)CCN(Cc2cn[nH]c2-c2ccccc2)CC1` was tested. Which Potency did it give?
A: active: 10 µM

Q: For `O=C(CN1CCCC1)Nc1ccccc1Sc1ccc(Cl)cc1`, which “activity change, negative = inhibition” value is on record?
A: inactive: 9.5%

Q: For `COC(=O)c1c(NC(=O)c2nc3nc(C)cc(C(F)F)n3n2)sc2c1CCC2`, which “activity change, negative = inhibition” value is on record?
A: inactive: -1.89%

Q: For `O=C(Nc1ccc(N2CCOCC2)cc1)c1ccc(-c2ccccc2[N+](=O)[O-])o1`, which Potency is on record?
A: inconclusive: 11.2 µM [quencher, side channel, partial curve]

Q: How did the Potency turn out when `O=C(Nc1ncc([N+](=O)[O-])s1)c1ccccc1Br` was run?
A: inconclusive: 14.1 µM [quencher, side channel, partial curve]

Q: For `O=C(CCNC(=O)c1ccc([N+](=O)[O-])cc1)Nc1cccc(S(=O)(=O)N2CCCCC2)c1`, which Potency is on record?
A: inconclusive: 12.6 µM [quencher, side channel, partial curve]

Q: Which Potency does the source give for `Cc1nc(SCC(O)CO)c([N+](=O)[O-])[nH]1` (stereo unspecified) here?
A: inconclusive: 31.6 µM [quencher, side channel, single point]

Q: With `CCOC(=O)c1ccc(-n2c(CN3CCN(CCO)CC3)nc3ccc([N+](=O)[O-])cc3c2=O)cc1` as the compound, how does the Potency read?
A: inconclusive: 14.1 µM [quencher, side channel, partial curve]

Q: Which “activity change, negative = inhibition” value does the source give for `COc1ccc(C(CCNCc2ccc(OC(C)C)cc2)c2ccccc2OC)cc1` (stereo unspecified) here?
A: inactive: -8.16%

Q: `O=[N+]([O-])c1cnc(N2CCCCC2)c([N+](=O)[O-])c1` was tested. Which Potency did it give?
A: inconclusive: 8.91 µM [quencher, side channel, partial curve]

Q: For `Cc1nc(C(=O)NCCC(C)C)sc1C1(C)CC(c2cccc([N+](=O)[O-])c2)=NO1` (stereo unspecified), which Potency is on record?
A: inconclusive: 28.2 µM [quencher, side channel, partial curve]

Q: `CCOc1ccc(-c2ccc(NS(=O)(=O)c3ccc([N+](=O)[O-])cc3)cc2)nn1` was tested. Which Potency did it give?
A: inconclusive: 5.62 µM [quencher, side channel, full curve]

Q: For `O=C(COc1ccc(/C=N/NC(=O)c2cc3ccccc3o2)cc1Br)Nc1ccccc1`, which “activity change, negative = inhibition” value is on record?
A: inactive: 17%

Q: Which Potency does the source give for `COc1ccc(Cc2nn3c(-c4cc(OC)c(OC)c(OC)c4)nnc3s2)cc1` here?
A: inconclusive: 25.1 µM [quencher, side channel, partial curve]

Q: Which Potency does the source give for `CCOC(=O)c1cc(NC(=O)c2ccccc2)c(=O)oc1-c1ccccc1` here?
A: inconclusive: 20 µM [quencher, side channel, partial curve]

Q: For `Cc1ccc(/C=N/n2nnnc2N)cc1[N+](=O)[O-]`, which Potency is on record?
A: inconclusive: 11.2 µM [quencher, side channel, partial curve]

Q: `CC1(C(=O)NC(=S)N(CCC#N)c2ccccc2)CC1(Cl)Cl` (stereo unspecified) was tested. Which “activity change, negative = inhibition” value did it give?
A: inactive: -2.59%

Q: `O=C(CSC1=NCCN1)Nc1cccc([N+](=O)[O-])c1` was tested. Which Potency did it give?
A: inconclusive: 14.1 µM [quencher, side channel, partial curve]

Q: How did the Potency turn out when `Oc1ccc(NC(=S)N=Nc2c(O)[nH]c3ccc(Br)cc23)cc1` was run?
A: inconclusive: 12.6 µM [quencher, side channel, partial curve]

Q: `CCCn1c(C)cc(-c2csc(N)n2)c1C` was tested. Which “activity change, negative = inhibition” value did it give?
A: inactive: -22.7%

Q: For `COC(=O)c1cc(Cl)c(NC(=O)C(C)C)cc1OC`, which “activity change, negative = inhibition” value is on record?
A: inactive: -8.38%

Q: Which “activity change, negative = inhibition” value does the source give for `O=C(COC(=O)/C=C/C(=O)OCC(=O)NC12CC3CC(CC(C3)C1)C2)NC12CC3CC(CC(C3)C1)C2` here?
A: inactive: -12.7%

Q: For `O=C(NN1C(=O)NC2(CCCCC2)C1=O)c1ccc(-c2ccc([N+](=O)[O-])cc2)o1`, which Potency is on record?
A: inconclusive: 14.1 µM [quencher, side channel, partial curve]

Q: How did the Potency turn out when `CCCOc1ccc(C(=O)Nc2ccc(N3CCN(C(C)=O)CC3)cc2)cc1` was run?
A: inconclusive: 39.8 µM [quencher, side channel, single point]

Q: With `CCC[N+](CC#Cc1ccccc1)(CCC)CC(=O)OC` as the compound, how does the “activity change, negative = inhibition” value read?
A: inactive: -11.5%

Q: How did the Potency turn out when `O=C(CN1CCCC1)Nc1ccc([N+](=O)[O-])cc1Cl` was run?
A: inconclusive: 8.91 µM [quencher, side channel, partial curve]

Q: `Clc1ccc(CNc2nc(CN3CCOCC3)nc3scc(-c4ccccc4)c23)cc1` was tested. Which “activity change, negative = inhibition” value did it give?
A: inactive: 21.2%

Q: For `COc1cccc(/C=C2\SC(=S)N(CCCC(=O)N3CCCC3)C2=O)c1`, which “activity change, negative = inhibition” value is on record?
A: inactive: 22%

Q: `COCc1cc(C)c(C#N)c(=S)[nH]1` was tested. Which “activity change, negative = inhibition” value did it give?
A: inactive: -17.2%

Q: For `CC(=O)Nc1cccc(-c2cc(C)c3cc4c(cc3n2)OCO4)c1`, which Potency is on record?
A: inconclusive: 25.1 µM [quencher, side channel, partial curve]

Q: For `O=C(Nc1ccc(NC(=O)c2ccc([N+](=O)[O-])cc2[N+](=O)[O-])cc1)c1ccco1`, which Potency is on record?
A: inconclusive: 2.24 µM [quencher, side channel, full curve]

Q: For `O=C1c2cccnc2C(=O)N1C1CCCCC1`, which Potency is on record?
A: inconclusive: 25.1 µM [quencher, side channel, partial curve, poor fit]

Q: Which Potency does the source give for `CN(CCCC(=O)O)S(=O)(=O)c1ccc2c(c1)C(=O)c1cc(S(=O)(=O)N(C)CCCC(=O)O)ccc1-2` here?
A: inconclusive: 5.01 µM [quencher, side channel, partial curve]

Q: Which Potency does the source give for `CCCNS(=O)(=O)c1cc(CN2C(=O)c3cccnc3C2=O)ccc1OC` here?
A: inconclusive: 12.6 µM [quencher, side channel, partial curve]

Q: How did the Potency turn out when `COc1ccc(/C=C/c2ccncc2)cc1OC` was run?
A: inconclusive: 22.4 µM [quencher, partial curve]

Q: How did the Potency turn out when `O=[N+]([O-])c1ccc(-n2nncc2-c2ccc(Cl)cc2)cc1` was run?
A: inconclusive: 14.1 µM [quencher, partial curve]

Q: For `CCc1ccc(NC(=O)CCNS(=O)(=O)c2cccc3nsnc23)cc1`, which Potency is on record?
A: inconclusive: 15.8 µM [quencher, side channel, partial curve]

Q: Which Potency does the source give for `O=C(CN1CCC(NC(=O)c2ccco2)CC1)Nc1ccccc1[N+](=O)[O-]` here?
A: inconclusive: 11.2 µM [quencher, side channel, partial curve]

Q: How did the Potency turn out when `COc1ccc(/C=C2\SC(N3CCCCC3)=NC2=O)cc1OC` was run?
A: inconclusive: 2.82 µM [quencher, side channel, full curve, poor fit]

Q: With `O=C(N/N=C/c1ccc(Br)o1)/C(=C/c1ccc([N+](=O)[O-])cc1)NC(=O)c1ccccc1` as the compound, how does the Potency read?
A: inconclusive: 10 µM [quencher, side channel, partial curve]

Q: Which Potency does the source give for `COCCCN1C(=O)c2ccc(C(=O)NCc3ccccn3)cc2C1=O` here?
A: inconclusive: 11.2 µM [quencher, side channel, partial curve]

Q: With `O=C(NCc1ccco1)c1ccc([N+](=O)[O-])o1` as the compound, how does the Potency read?
A: inconclusive: 17.8 µM [quencher, side channel, partial curve]

Q: For `CCc1nc(SCc2ccc(F)cc2)[nH]c(=O)c1C#N`, which Potency is on record?
A: inconclusive: 39.8 µM [inhibitor, single point]

Q: For `CCOC(=O)c1sc(SCC(=O)Nc2ccc(N(C)C)cc2)nc1N`, which Potency is on record?
A: inconclusive: 15.8 µM [quencher, side channel, partial curve]

Q: `N#Cc1ccccc1CSc1ccc(-c2nc3ccccc3[nH]2)cn1` was tested. Which Potency did it give?
A: inconclusive: 39.8 µM [fluorescent, side channel, partial curve]

Q: With `CN1CCN(c2ccc(CNS(=O)(=O)c3ccc(F)cc3Cl)cc2)CC1` as the compound, how does the “activity change, negative = inhibition” value read?
A: inactive: -4.64%

Q: With `Cc1c(N2C(=O)CS/C2=N\N=C\c2ccccc2O)c(=O)n(-c2ccccc2)n1C` as the compound, how does the Potency read?
A: inconclusive: 39.8 µM [quencher, side channel, partial curve, poor fit]

Q: How did the Potency turn out when `O=C(NC1CCN(CC(=O)N(c2ccccc2)c2ccccc2)CC1)c1ccc([N+](=O)[O-])cc1` was run?
A: inconclusive: 28.2 µM [quencher, side channel, partial curve]

Q: How did the “activity change, negative = inhibition” value turn out when `COc1ccc(CC(=O)N2CCN(c3ccccc3F)CC2)cc1OC` was run?
A: inactive: -5.9%

Q: Which Potency does the source give for `[O-][n+]1onc2c1CCC(=N/O)/C2=N\Nc1ccccc1` here?
A: inconclusive: 20 µM [quencher, side channel, partial curve]

Q: Which Potency does the source give for `S=C(NCCSCc1ccccc1Cl)Nc1ccccc1` here?
A: inconclusive: 8.91 µM [quencher, side channel, single point]

Q: Which “activity change, negative = inhibition” value does the source give for `CCOc1ccc(C2C(C(=O)c3ccco3)=C(O)C(=O)N2CCCn2ccnc2)cc1OC` (stereo unspecified) here?
A: inactive: 23%

Q: With `COC(=O)Cc1c(C)c2ccc(OCC(=O)N(C)C3CCS(=O)(=O)C3)cc2oc1=O` (stereo unspecified) as the compound, how does the Potency read?
A: inconclusive: 39.8 µM [quencher, side channel, single point]

— PubChem BioAssay AID2675 (National Center for Advancing Translational Sciences (NCATS), 2010)
